From US7812042B2, “Pharmaceutical compositions and therapeutic applications for the use of a novel vitamin B12 derivative, N-acetyl-L-cysteinylcobalamin” (priority 2006, dated 2010) come the findings set out here.

Structures are written as SMILES. Entries with a single value are a further part of the results.

In the assay the test system is SK-HEP-1 cells. The experiment in a line: Protection of endothelial cells from homocysteine-induced cell death (MTS assay, absorbance at 490 nm; includes comparison of NACCbl, NAC, cyanocobalamin+NAC, free thiols, other cobalamins, folate). It is filed as cell-based, Human. The settings on record: NACCbl 30 μM, NAC 75 μM. Here is the method:
The effect of a constant concentration of NACCbl and GSCbl to protect cells against variable concentrations of homocysteine was assessed. […] Cell viability was determined by MTS® assay. Data shown in FIG. 4 are representative of means ±SE of 6 independent samples. FIG. 4 illustrates that NACCbl (▪) and GSCbl (▴) protect endothelial cells from the effect of homocysteine. […] Cell viability was determined by MTS® assay. […] There was a decrease in protection as homocysteine concentration increased, but there was still ˜60% survival at 50 μM homocysteine.
The data was normalized (log 2 and log 10) as shown in FIGS. 16 and 17 and Tables 16 and 17, respectively, below.
A general note: Tetrazolium dyes change colour on reduction, which living cells bring about.

On to `CC(=O)NC(C[S-])C(=O)O.CC1=C2N=C(C=C3N=C(C(C)=C4[N-]C(C(CC(N)=O)C4(C)CCC(=O)NCC(C)OP(=O)([O-])OC4C(CO)OC(n5cnc6cc(C)c(C)cc65)C4O)C4(C)N=C1C(CCC(N)=O)C4(C)CC(N)=O)C(CCC(N)=O)C3(C)C)C(CCC(N)=O)C2(C)CC(N)=O.[Co+3]` [NACCbl, N-acetyl-L-cysteinylcobalamin], for which the “normalized cell viability (MTS), percent, mean of 6” value came to 94.824 (Conc. Hcy 0.000, Normalized data, Log 2); 100.000 (Conc. Hcy 0.000, Normalized data, Log 10); 91.341 (Conc. Hcy 1.780, normalized data log 2); 96.489 (Conc. Hcy 1.780, normalized data log 10); 80.699 (Conc. Hcy 3.125, normalized data log 2); 85.763 (Conc. Hcy 3.125, normalized data log 10). The “normalized cell viability (MTS), percent, mean of 6” value reads like this: (Conc. Hcy 6.250, normalized data log 2) 75.524; (Conc. Hcy 6.250, normalized data log 10) 80.546; (Conc. Hcy 12.500, normalized data log 2) 70.387; (Conc. Hcy 12.500, normalized data log 10) 75.368; (Conc. Hcy 25.000, normalized data log 2) 62.926; (Conc. Hcy 25.000, normalized data log 10) 67.848. The “normalized cell viability (MTS), percent, mean of 6” value was 56.302 (Conc. Hcy 50.000, normalized data log 2); 61.171 (Conc. Hcy 50.000, normalized data log 10); 52.298 (Conc. Hcy 100.000, normalized data log 2); 57.135 (Conc. Hcy 100.000, normalized data log 10); 40.781 (Conc. Hcy 200.000, normalized data log 2); 45.526 (Conc. Hcy 200.000, normalized data log 10).
